In all, about 390,000 compounds went through this assay and about 150 (0.038%) were called active. The inconclusive results got no clear call from the source; some entries with a clear call stand among them for comparison. Calls follow the shape of the dose curve; as a rule, active = well fitted inhibition curve with a large enough effect; inconclusive = small, poorly fitted or top-dose-only effect; inactive = no such curve, though single readings can be large or run the other way. A potency beside an inconclusive call is a rough fit, not a confirmed value.
The molecules below were run against Regulator of G-protein signaling 4 (Homo sapiens) (UniProt P49798) (assay: Inhibitors of Regulator of G Protein Signaling (RGS) 4: qHTS). Conditions: Transcreener GDP fluorescence polarization, RGS4-accelerated GTP hydrolysis; series mostly up to 114 µM; activity change, negative = inhibition: at the top concentration.
UniProt P49798, sequence (P49798 whole entry, looked up): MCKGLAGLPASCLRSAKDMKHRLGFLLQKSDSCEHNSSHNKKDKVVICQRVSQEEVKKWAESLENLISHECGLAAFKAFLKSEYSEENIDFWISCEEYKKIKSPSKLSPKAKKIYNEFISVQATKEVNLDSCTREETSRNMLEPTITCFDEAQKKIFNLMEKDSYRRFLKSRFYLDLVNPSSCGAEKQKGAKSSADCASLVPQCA
In short: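 MLSMR compounds (23 nl, pin-transferred) preincubated 10 min at room temperature with a 500nM (2x) first reagent, then RGS4 at 900nM (2x) plus Transcreener GDP mix added; fluorescence polarization (620/688 nm) read before and after 90 min at 30 °C.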
% is scaled to controls: 0 for no effect and ±100 for the full control effect; potency is read from the fitted curve at half-maximal effect; tags tell the direction and shape of the fitted curve.
Also: nearly all actives have a fitted effect of over 75% in size.

Question: With `Cc1ccc(/C=C/C(=O)N2CCc3ccccc32)o1` as the molecule, how does the Potency read?
Answer: inconclusive: 39.8 µM [inhibitor, partial curve, poor fit]

Question: Which “activity change, negative = inhibition” value does the source give for `O=C(NCCCN1CCOCC1)c1ccc(Sc2ccccc2Cl)c([N+](=O)[O-])c1` here?
Answer: inactive: -28.9%

Question: Which Potency does the source give for `COc1cccc(C(=O)CSc2nnc(CNS(C)(=O)=O)n2-c2ccc(C)cc2)c1` here?
Answer: inconclusive: 50.1 µM [inhibitor, partial curve, poor fit]

Question: How did the “activity change, negative = inhibition” value turn out when `COc1ccc(-c2cc([C@H]3[C@H]4C=CC[C@@H](C)[C@@H]4C(=O)N3Cc3ccccc3)ccc2F)cc1OC` was run?
Answer: inactive: 2.99%

Question: Which “activity change, negative = inhibition” value does the source give for `CCCCNS(=O)(=O)c1ccc2nc(-c3cccnc3)cc(C(=O)NC3CCCC3)c2c1` here?
Answer: inactive: -20.1%

Question: With `Cc1cccc(NC(c2cccc(Cl)c2)c2ccc3cccnc3c2O)n1` (stereo unspecified) as the molecule, how does the “activity change, negative = inhibition” value read?
Answer: inactive: -7.92%

Question: For `COc1ccc(C(=O)c2ccsc2N)cc1`, which “activity change, negative = inhibition” value is on record?
Answer: inactive: -5.25%

Question: Which Potency does the source give for `C=CCSc1nc2ccsc2c(=O)n1-c1ccccc1` here?
Answer: inconclusive: 56.2 µM [inhibitor, partial curve, poor fit]

Question: How did the Potency turn out when `OCCN1CCN(CCCN2c3ccccc3Sc3ccc(Cl)cc32)CC1` was run?
Answer: inconclusive: 23.8 µM [inhibitor, single point]

Question: `CCCN(CCC)C(=O)c1c[nH]c2ccc(S(=O)(=O)N(C)c3ccc(Cl)cc3)cc2c1=O` was tested. Which “activity change, negative = inhibition” value did it give?
Answer: inactive: 16.7%

Question: Which “activity change, negative = inhibition” value does the source give for `COc1ccc(OCCOC(=O)c2[nH]c(C)c(C(C)=O)c2C)cc1` here?
Answer: inactive: 6.02%

Question: For `COCCNc1nnc(Cc2ccccc2)c(=O)[nH]1`, which “activity change, negative = inhibition” value is on record?
Answer: inactive: 35.3% [at 56.9 µM]

Question: How did the Potency turn out when `S=c1ncc2[nH]c(=S)[nH]c2[nH]1` was run?
Answer: inconclusive: 28.2 µM [inhibitor, full curve, poor fit]

Question: For `CCC(C)[C@H](NS(=O)(=O)c1ccc(F)cc1Br)C(=O)OC` (stereo partly specified), which “activity change, negative = inhibition” value is on record?
Answer: inactive: -6.98%

Question: With `CCCC(=O)N(c1ccc2oc3c(c2c1)CCCC3)S(=O)(=O)c1ccc(CC)cc1` as the molecule, how does the “activity change, negative = inhibition” value read?
Answer: inactive: 36%

Question: How did the Potency turn out when `CCc1nnc(NS(=O)(=O)c2ccc(NC(=S)NC(=O)/C=C/c3ccc(F)cc3)cc2)s1` was run?
Answer: inconclusive: 79.4 µM [inhibitor, partial curve, poor fit]

Question: `O=C1C2C3C=CC(CNS(=O)(=O)c4ccccc4[N+](=O)[O-])(O3)C2C(=O)N1c1ccccc1` (stereo unspecified) was tested. Which Potency did it give?
Answer: inconclusive: 44.7 µM [inhibitor, partial curve, poor fit]

Question: Which Potency does the source give for `Cc1cccc(NC(=O)C(C)SCc2nc3sc(C)c(C)c3c(=O)[nH]2)n1` (stereo unspecified) here?
Answer: inconclusive: 70.8 µM [inhibitor, partial curve, poor fit]

Question: With `NC(=S)N/N=C1/CCSc2ccc3ccccc3c21` as the molecule, how does the Potency read?
Answer: inconclusive: 17.8 µM [inhibitor, full curve, poor fit]

Question: With `CC(=O)/C=C1\C(=O)N(C)c2ccccc21` as the molecule, how does the Potency read?
Answer: active: 18.9 µM

Question: For `CNc1nc(N)c(C(=O)C23CC4CC(CC(C4)C2)C3)s1`, which Potency is on record?
Answer: inconclusive: 89.1 µM [inhibitor, partial curve, poor fit]

Question: `CCOc1ccc(-c2nc(Cn3c(=O)cc(-c4ccccc4)c4c(C)nn(C)c43)c(C)o2)cc1OC` was tested. Which “activity change, negative = inhibition” value did it give?
Answer: inactive: -10.9%

Question: For `CCC(C)(C)NC(=O)CN(C(=O)c1csnn1)c1ccccc1-c1ccccc1`, which Potency is on record?
Answer: inconclusive: 89.1 µM [inhibitor, partial curve, poor fit]

Question: Which Potency does the source give for `CCOC(=O)c1c(NC(=O)CSc2nnnn2-c2ccc(OC)cc2)sc(C)c1C` here?
Answer: inconclusive: 50.1 µM [inhibitor, partial curve, poor fit]

Question: For `CCc1cc2c(cc3c(=O)n(CC(=O)NCc4cccc(Cl)c4)nc(CC)n32)s1`, which “activity change, negative = inhibition” value is on record?
Answer: inactive: 19.3%

Question: Which Potency does the source give for `Cc1cc(C)c2c(=O)n(CC(=O)Nc3ccc(Cl)cc3)sc2n1` here?
Answer: inconclusive: 31.6 µM [inhibitor, full curve, poor fit]

Question: Which Potency does the source give for `CC(C)c1ccc(OCC(=O)N2CCN(c3ccccn3)CC2)c(Br)c1` here?
Answer: inconclusive: 89.1 µM [inhibitor, partial curve, poor fit]

Question: `C1=C(CCNc2nnnn2-c2ccccc2)CCCC1` was tested. Which Potency did it give?
Answer: inconclusive: 89.1 µM [inhibitor, single point]

Question: With `C[C@@H]1O[C@@H](OC[C@H]2O[C@@H](Oc3c(-c4cccc(O)c4O)oc4cc(O)cc(O)c4c3=O)[C@H](O)[C@@H](O)[C@@H]2O)[C@H](O)[C@H](O)[C@H]1O` as the molecule, how does the Potency read?
Answer: inconclusive: 6.7 µM [inhibitor, partial curve, poor fit]

Question: Which “activity change, negative = inhibition” value does the source give for `Cc1ccccc1N(C(=O)c1snc(C(N)=O)c1N)C(C(=O)NC1CCCC1)c1ccco1` (stereo unspecified) here?
Answer: inactive: 11.7%

Question: For `Cc1cc(OCC(O)CNC(C)c2ccccc2)ccc1C(C)C` (stereo unspecified), which “activity change, negative = inhibition” value is on record?
Answer: inactive: -15.6%

Question: `Cc1ccc(C2C3=C(CC(C)(C)CC3=O)N=C3c4ccccc4C(=O)C32)cc1` (stereo unspecified) was tested. Which Potency did it give?
Answer: inconclusive: 79.4 µM [inhibitor, partial curve, poor fit]

Question: How did the “activity change, negative = inhibition” value turn out when `CN(C(=O)Cn1nc(Cc2cccnc2)c2ccccc2c1=O)c1cccc(C(F)(F)F)c1` was run?
Answer: inactive: -21.5%

Question: For `CCc1ccc(C2C(C#N)=C(N)N(N3CCOCC3)C3=C2C(=O)CC(C)(C)C3)s1` (stereo unspecified), which Potency is on record?
Answer: inconclusive: 44.7 µM [inhibitor, partial curve, poor fit]

Question: How did the “activity change, negative = inhibition” value turn out when `CCc1ccc(S(=O)(=O)c2nnn3c2nc(N2CCN(c4ccccc4)CC2)c2cc(Cl)ccc23)cc1` was run?
Answer: inactive: 0.373%

Question: With `OCCCn1c(C2CCCN2c2nc(-c3ccc(F)cc3)cs2)nc2cc(C(F)(F)F)ccc21` (stereo unspecified) as the molecule, how does the Potency read?
Answer: inconclusive: 17.8 µM [inhibitor, full curve, poor fit]

Question: `O=C(NCCCN1CCOCC1)NC1CCCCC1` was tested. Which “activity change, negative = inhibition” value did it give?
Answer: inactive: 15.2%

Question: Which “activity change, negative = inhibition” value does the source give for `S=C(Nc1nc2c(s1)CCCC2)NC1CC1` here?
Answer: inactive: -22.6%

Question: For `CC(C)CN(CC(C)C)C(=O)c1cccc(S(=O)(=O)N2CCc3ccccc32)c1`, which Potency is on record?
Answer: inconclusive: 70.8 µM [inhibitor, partial curve, poor fit]

Question: With `COc1ccc(-c2oc(=O)c3cc(OC)c(OC)cc3c2C(F)(F)F)cc1` as the molecule, how does the “activity change, negative = inhibition” value read?
Answer: inactive: -16.3%

Question: `O=C(/C=C/c1cccs1)Nc1nccs1` was tested. Which “activity change, negative = inhibition” value did it give?
Answer: inactive: 11.8%

Question: Which “activity change, negative = inhibition” value does the source give for `Cc1ccc(NC(=O)NCCN2CCCCC2)cc1` here?
Answer: inactive: -9.5%

Question: For `S=c1[nH]nc(-c2ccncc2)n1/N=C/C=C/c1ccccc1`, which Potency is on record?
Answer: inconclusive: 89.1 µM [inhibitor, single point]

Question: Which “activity change, negative = inhibition” value does the source give for `CCCCOc1ccccc1C1CC(=O)Nc2ccc3ccccc3c21` (stereo unspecified) here?
Answer: inactive: 5.46%

Question: `O=C(c1ccc2c(c1)N(Cc1ccc(Cl)cc1)C(=O)c1ccccc1S2(=O)=O)N1CCCC1` was tested. Which “activity change, negative = inhibition” value did it give?
Answer: inactive: 13%

Question: How did the Potency turn out when `Cc1ccc(CCNC(=O)C2CCCN(S(=O)(=O)c3c(C)nn(C)c3C)C2)cc1` (stereo unspecified) was run?
Answer: inconclusive: 79.4 µM [inhibitor, partial curve, poor fit]

Source: PubChem BioAssay AID504845 (National Center for Advancing Translational Sciences (NCATS), 2011)
